Assay results taken from patent publication US10064939B2, “Combination therapy using c-Met inhibitor and IGF-1R inhibitor for c-Met inhibitor resistant cancers” (Samsung Electronics Co., Ltd., priority 2014, dated 2018).

Key:
Details in all cases: rank among the four antibodies of Reference Example 1.7
c-Met [1] = molecular target: T1, c-Met (Homo sapiens, UniProt P08581); assay: Affinity for c-Met of affinity-matured antibodies; assay type: binding
Akt phosphorylation = assay: Akt phosphorylation; assay type: cell-based
c-Met [2] = molecular target: T1, c-Met; assay: c-Met degradation degree; assay type: cell-based

T1 sequence (P08581 25-1390): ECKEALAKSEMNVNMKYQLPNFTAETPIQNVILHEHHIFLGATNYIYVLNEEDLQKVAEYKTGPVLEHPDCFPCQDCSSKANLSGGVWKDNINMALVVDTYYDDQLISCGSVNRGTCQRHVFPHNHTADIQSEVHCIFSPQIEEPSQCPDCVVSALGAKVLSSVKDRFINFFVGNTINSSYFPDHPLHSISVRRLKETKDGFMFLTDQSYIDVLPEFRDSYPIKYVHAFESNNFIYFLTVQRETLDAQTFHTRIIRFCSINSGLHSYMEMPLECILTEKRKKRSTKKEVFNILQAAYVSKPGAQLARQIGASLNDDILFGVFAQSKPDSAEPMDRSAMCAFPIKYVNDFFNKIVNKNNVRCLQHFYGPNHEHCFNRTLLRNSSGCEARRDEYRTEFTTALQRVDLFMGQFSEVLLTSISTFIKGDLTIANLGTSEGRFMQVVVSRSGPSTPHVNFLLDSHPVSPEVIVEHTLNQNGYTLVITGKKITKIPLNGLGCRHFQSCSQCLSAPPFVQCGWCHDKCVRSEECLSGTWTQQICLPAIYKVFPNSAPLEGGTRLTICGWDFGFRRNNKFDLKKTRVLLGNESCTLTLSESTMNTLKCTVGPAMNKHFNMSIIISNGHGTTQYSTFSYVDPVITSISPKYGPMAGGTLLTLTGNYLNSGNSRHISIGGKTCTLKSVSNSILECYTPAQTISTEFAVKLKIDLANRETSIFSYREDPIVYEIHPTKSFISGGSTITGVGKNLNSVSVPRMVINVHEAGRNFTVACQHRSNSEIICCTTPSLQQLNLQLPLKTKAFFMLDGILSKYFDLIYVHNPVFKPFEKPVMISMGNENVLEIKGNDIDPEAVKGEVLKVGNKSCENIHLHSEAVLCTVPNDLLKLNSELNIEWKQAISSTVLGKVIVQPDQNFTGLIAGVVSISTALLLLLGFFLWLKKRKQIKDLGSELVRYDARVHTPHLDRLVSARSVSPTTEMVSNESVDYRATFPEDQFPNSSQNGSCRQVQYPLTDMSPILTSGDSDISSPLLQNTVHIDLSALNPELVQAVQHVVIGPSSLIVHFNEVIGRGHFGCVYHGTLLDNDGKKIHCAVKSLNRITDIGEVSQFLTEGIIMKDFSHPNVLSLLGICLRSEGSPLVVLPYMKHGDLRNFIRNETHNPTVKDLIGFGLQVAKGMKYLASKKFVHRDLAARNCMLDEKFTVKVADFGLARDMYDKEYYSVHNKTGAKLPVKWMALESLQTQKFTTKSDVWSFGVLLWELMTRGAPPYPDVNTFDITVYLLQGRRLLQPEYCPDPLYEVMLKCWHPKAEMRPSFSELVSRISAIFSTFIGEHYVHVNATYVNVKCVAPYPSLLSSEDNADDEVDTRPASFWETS

B1: huAbF46-H4-A1: affinity-matured humanized anti-c-Met antibody, L3-1 origin (CDR-L3 SEQ ID NO: 13), U6-HC7 hinge (antibody)
heavy: EVQLVESGGGLVQPGGSLRLSCAASGFTFTDYYMSWVRQAPGKGLEWLGFIRNKANGYTTEYSASVKGRFTISRDNSKNTLYLQMNSLRAEDTAVYYCARDNWFAYWGQGTLVTVSSASTKGPSVFPLAPSSKSTSGGTAALGCLVKDYFPEPVTVSWNSGALTSGVHTFPAVLQSSGLYSLSSVVTVPSSSLGTQTYICNVNHKPSNTKVDKKVEPKSCDCH[human IgG1 Fc left out]
light: DIQMTQSPSSLSASVGDRVTITCKSSQSLLASGNQNNYLAWHQQKPGKAPKMLIIWASTRVSGVPSRFSGSGSGTDFTLTISSLQPEDFATYYCQQSYSRPYTFGQGTKVEIKRTVAAPSVFIFPPSDEQLKSGTASVVCLLNNFYPREAKVQWKVDNALQSGNSQESVTEQDSKDSTYSLSSTLTLSKADYEKHKVYACEVTHQGLSSPVTKSFNRGEC
affinity for c-Met (c-Met [1]): highest
Akt phosphorylation (Akt phosphorylation): lowest
c-Met degradation degree (c-Met [2]): lowest
